Experimental findings from PubChem BioAssay AID485344 (National Center for Advancing Translational Sciences (NCATS), 2010) are described below.

About 6,900 (2%) of roughly 340,000 compounds were called active. No stated cut-off is given here; in the data, active means inhibition above about 30%; inactive means below that, where a call was filed. This is a selection; strong and weak results do not stand in their true shares. The source gives no active or inactive call for entries shown without one.

The target of the test is D(2) dopamine receptor (Homo sapiens) (UniProt P14416). As to the kind of experiment: HTS Assay for Allosteric Antagonists of the Human D2 Dopamine Receptor: Primary Screen for Antagonists. Further: 0% is about no effect. The conditions noted are these: HEK293 TREx D2 cells, calcium flux, dopamine EC80; at 10 µM; stronger effect = higher value. The procedure, abridged: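 Dopamine at EC80 is the agonist stimulus; test compounds precede it by 180 s. Calcium flux read kinetically in a force-coupled, inducible HEK293 T-REx D2 cell line.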
Sequence of UniProt P14416 (P14416 whole entry, looked up): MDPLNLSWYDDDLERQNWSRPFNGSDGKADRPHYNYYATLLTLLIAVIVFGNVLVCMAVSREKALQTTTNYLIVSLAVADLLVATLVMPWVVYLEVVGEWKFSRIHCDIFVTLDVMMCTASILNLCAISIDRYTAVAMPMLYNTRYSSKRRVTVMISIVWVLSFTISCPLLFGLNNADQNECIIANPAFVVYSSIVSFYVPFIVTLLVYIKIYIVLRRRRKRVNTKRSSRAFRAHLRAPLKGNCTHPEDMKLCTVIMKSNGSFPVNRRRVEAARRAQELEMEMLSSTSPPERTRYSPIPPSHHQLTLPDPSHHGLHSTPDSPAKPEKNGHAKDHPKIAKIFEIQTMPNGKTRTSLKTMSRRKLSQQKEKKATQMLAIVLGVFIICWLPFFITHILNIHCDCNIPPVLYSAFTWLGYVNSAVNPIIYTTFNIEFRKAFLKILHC
Background: Calcium assays in cells follow changes in intracellular calcium, usually with a dye or a luminescent sensor.
The term inhibition denotes the drop in the measured response relative to a control, in per cent. As for `COc1cc2c(cc1OC)C(COc1ccccc1OC)N(C(=O)c1ccc(S(=O)(=O)N(C)C)cc1)CC2` (centres undefined), the inhibition stood at 3.26%.

Turning to `O=C(CCc1nc2ccccc2c(=O)[nH]1)Nc1ccc(N2CCCCC2)cc1`, the inhibition is active: 76.7%.

Turning to `Cc1ccc(Cl)cc1N1CCN(C(=O)COc2cc(=O)n(C)c3ccccc23)CC1`, the inhibition is -17.4%.

With `CC(C)Cn1c(CCCNC(=O)c2ccc(F)cc2)nc2ccccc21`, the inhibition was active: 30.9%.

In the case of `COc1ccc(Nc2nc3c(S(=O)(=O)c4ccc(C)cc4)nnn3c3ccsc23)cc1Cl`, the inhibition is -5.13%.

`Cc1ccc(/C=C/c2onc(C)c2S(=O)(=O)N2CCC(C(=O)N3CCN(c4cc(C)ccc4C)CC3)CC2)cc1`: the inhibition is -0.932%.

In the case of `CC(=O)N1CCc2c(sc3c2c(=O)n(Cc2ccccc2)c(=O)n3Cc2ccccc2Cl)C1`, the inhibition is -23.8%.

With `COC(=O)c1ccc([N+](=O)[O-])cc1N1C(=O)C2C3CCC(C3)C2C1=O` (centres undefined), the inhibition was active: 52.7%.

For the compound `CCOc1ccc(C(=O)NCC(c2ccc3c(c2)OCO3)N2CCN(C)CC2)cc1` (centres undefined), the inhibition turned out to be 2.84%.

`CCOc1ccc2nc(Cl)c(C3CC(c4ccccc4)=NN3C(=O)CCC(=O)O)cc2c1` (centres undefined): the inhibition was -5.86%.

As to `CC(=O)Nc1ccc(S(=O)(=O)N2CCN(CC(=O)N3CCOCC3)CC2)cc1`, the inhibition was active: 37.4%.

With `Cc1ccc(-c2nnc(Nc3ccc(O)cc3)c3ccccc23)cc1S(=O)(=O)NC(C)(C)CO`, the inhibition is -16.7%.

With `CCOc1ccc(S(=O)(=O)N(CC(=O)Nc2ccc(OC)c(Cl)c2)c2ccccc2)cc1`, the inhibition is -16.9%.

As for `Cc1nn2c(C)c(C(=O)NCc3cccc(Br)c3)cnc2c1-c1ccccc1`, the inhibition is 9.89%.

For the compound `COc1ccc(Cl)cc1NC(=O)c1noc2c1CCc1ccccc1-2`, the inhibition was 17%.

In the case of `COc1ccc(Nc2cc(C)c3cc(NC(=O)COc4cccc(C)c4)ccc3n2)cc1`, the inhibition is -12.7%.

Consider `COc1ccc2nc(NC(=O)c3nc(S(=O)(=O)Cc4ccc(C)cc4)ncc3Cl)sc2c1`, for which the inhibition is -13.9%.

Regarding `Cc1cccc(N2CCN(C(=O)CCNS(=O)(=O)c3ccc4c(c3)CCN4C(=O)C3CC3)CC2)c1C`, the inhibition turned out to be 4.19%.

With `COc1cccc(CNC(=O)C2=C(C)C(=O)OC23CCCCCC3)c1`, the inhibition turned out to be 0.739%.

Take `CCOc1ccccc1NC(=O)CN(c1cc(C)cc(C)c1)S(=O)(=O)c1c(C)nn(C)c1C`: the inhibition was found to be 4.4%.

As for `Cc1cc(C)c(Cn2cnc3nc4c(cc3c2=O)CCCC4)c(C)c1`, the inhibition was -19.7%.

Consider `CCOc1cc(C(=O)Nc2ccc3nc(N4CCN(C)CC4)cc(C)c3c2)cc(OCC)c1OCC`, for which the inhibition was 2.35%.

As to `CCc1cccc(NC(=O)CN(C)S(=O)(=O)c2ccc3c(c2)n(C)c(=O)c(=O)n3C)c1`, the inhibition is 2.42%.

Turning to `COc1ccc(-c2noc(COc3ccc(C)cc3C)n2)cc1OC`, the inhibition was found to be 14.2%.

`Cc1ccc2oc(=O)cc(CN3CCN(Cc4ccccc4)CC3)c2c1`: the inhibition was active: 51.9%.

In the case of `COc1ccc(S(=O)(=O)N(CC(=O)Nc2ccc(C)cc2)c2ccc(C)cc2)cc1OC`, the inhibition is -2.85%.

`COc1cccc(-c2noc(C3CCCN(C(=O)c4ccc(F)cc4F)C3)n2)c1` (centres undefined): the inhibition is active: 32.7%.

In the case of `CCOC(=O)c1scc(-c2ccc(C)cc2)c1S(=O)(=O)N1CCN(c2ccccc2)CC1`, the inhibition is -4.51%.

As to `Cn1c(C(=O)NCc2ccccc2F)cc2cc(S(=O)(=O)N3CCCCC3)ccc21`, the inhibition is -18.9%.

Turning to `Cc1ccc(S(=O)(=O)N(C)c2ccc(C(=O)Nc3cccnc3)cc2)cc1`, the inhibition is active: 35%.

With `COC(=O)c1sc2cccc(F)c2c1S(=O)(=O)NCc1ccccc1Cl`, the inhibition is 1.08%.

Consider `COc1ccc(NC(=O)CN(C)S(=O)(=O)c2ccc3nc(C)sc3c2)cc1Cl`, for which the inhibition is -0.785%.

On to `CCCOc1ccc(C(=O)Nc2ccc(NC(=O)c3ccc(Br)cc3)cc2)cc1`, for which the inhibition is 12.7%.

As to `Cc1cccc(Nc2nnc(-c3ccc(C)c(S(=O)(=O)N4CCOCC4)c3)c3ccccc23)c1`, the inhibition is 8.47%.

For the compound `COc1ccc(CCNCc2c(C(=O)O)c(C)n(Cc3cccc(C)c3)c2C)cc1OC`, the inhibition is -4.35%.

With `Cn1c(Oc2cccc(Cl)c2)nc2c1c(=O)n(Cc1ccccc1Cl)c(=O)n2C`, the inhibition is -1.09%.

As to `Cc1ccc(NS(=O)(=O)c2ccc3[nH]c4c(c3c2)CCCCCC4)cc1C`, the inhibition stood at 10.6%.

For `COc1ccc(C)c(NC(=O)NCCc2cnc[nH]2)c1`, the inhibition is active: 37.7%.

For the compound `CCOc1ccccc1CNC(=O)CCCn1c(=O)c2cccn2c2ccc(F)cc21`, the inhibition was -13.5%.

In the case of `CCOc1ccc(S(=O)(=O)Nc2ccc3c(c2)CCCN3S(=O)(=O)c2ccc(C)cc2)cc1`, the inhibition is -1.18%.

For `Cc1ccc(-n2nnnc2CN2CCCCC2)cc1`, the inhibition is active: 37.8%.

With `CCOC(=O)c1cc(S(=O)(=O)N(C)c2ccccc2)[nH]n1`, the inhibition was found to be 22.6%.

In the case of `Cc1ccc(S(=O)(=O)N(Cc2cccnc2)Cc2cc3ccccc3[nH]c2=O)cc1`, the inhibition was active: 93.9%.

Regarding `Cc1ccc(CNC(=O)c2cc(NS(=O)(=O)c3ccc(C)cc3)ccn2)cc1`, the inhibition was -10.7%.

Consider `O=C(NCC(c1ccco1)S(=O)(=O)c1cccs1)c1c(F)cccc1F` (centres undefined), for which the inhibition worked out at 14%.

For the compound `CCN(CC)C(=O)c1sc2c(c1C)c(=O)n(Cc1ccccc1)c(=O)n2Cc1c(C)cc(C)cc1C`, the inhibition is -15.2%.

Turning to `CC(C)c1nc(SCC(=O)Nc2ccc(N(C)C)cc2)c2ccccc2n1`, the inhibition is active: 33.9%.

`OC(COc1ccc2c(c1)CCC2)CN1CCN(c2cccc(Cl)c2)CC1` (centres undefined): the inhibition is active: 39.2%.

Regarding `Cc1cccc(NC(=O)Cn2c(=O)n(CC3CCC(C(=O)NCCc4ccccc4)CC3)c(=O)c3ccccc32)c1C` (centres undefined), the inhibition is 1.72%.

As to `Cc1ccc2[nH]c(C)c(CCNC(=O)c3cc4cc(Br)ccc4oc3=O)c2c1`, the inhibition was -2.43%.

Turning to `Cc1nn(-c2ccc(N3CCCC3)nn2)c(C)c1CCC(=O)N1CCN(c2ccc(F)cc2)CC1`, the inhibition amounted to 2.64%.

With `CCCN(C(=O)c1c(-c2ccccc2)noc1C)c1c(N)n(Cc2ccccc2)c(=O)[nH]c1=O`, the inhibition was active: 65.5%.

With `O=C(NCC(c1cccnc1)N1CCc2ccccc21)c1cccc(F)c1` (centres undefined), the inhibition was -4.2%.

As for `CCOC(=O)c1ccc(NC(=O)c2c(NCc3ccc(OC)c(OC)c3OC)sc3c2CCC(C)C3)cc1` (centres undefined), the inhibition is -19.8%.

With `COc1ccc(OCC(=O)N2CCN(C(=O)c3cccc(OC)c3OC)CC2)cc1`, the inhibition is -16%.

Regarding `CCCCN(C(=O)CCn1c(=O)oc2ccccc21)c1ccccc1`, the inhibition was -1.01%.

Take `CCOc1ccc(-c2cc(CCCC(=O)NCCc3ccc(SC)cc3)no2)cc1`: the inhibition stood at 8.85%.

Regarding `COCCn1c(C)cc(O)c(C(c2ccccc2Cl)N2CCN(c3ccccc3)CC2)c1=O` (centres undefined), the inhibition came out at 0.948%.

As for `COC(=O)c1ccc(NC(=O)CN(C)S(=O)(=O)c2ccc3c(c2)CCCC(=O)N3)cc1`, the inhibition is -2.41%.
